# Where “and” joins values, the source holds several entries; their conditions need not be identical. Equal values may be shown once. The campaign covered roughly 75,000 compounds. About 20 (0.03%) were called active. This list was built around the results that the source calls inconclusive (neither active nor inactive); the mix of calls is not that of the screen. The call rests on the fitted dose curve; in most records, active means well fitted inhibition curve with a large enough effect; inconclusive means small, poorly fitted or top-dose-only effect; inactive means flat fitted curve, though single readings scatter. Potencies of inconclusive entries are doubtful fits and often do not repeat.
# Target: Caspase-1 (Homo sapiens) (UniProt P29466)
# Experiment: qHTS Assay for Allosteric/Competitive Inhibitors of Caspase-1;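 on activity change, negative = inhibition: plate controls were vehicle for no effect and no substrate for full effect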
# Details: Caspase-1 enzyme, Ac-WEHD-AFC fluorogenic rate; activity change, negative = inhibition: at 57.5 µM (top of the series) unless noted
# Potency means the concentration at half of the fitted maximal effect; tags describe the fitted curve by direction and shape or compound fluorescence and quenching.
SMILES,Potency,"activity change, negative = inhibition"
COC(=O)[C@H]1C(OC)[C@@H](OC(=O)c2cc(OC)c(OC)c(OC)c2)C[C@@H]2CN3CCc4c([nH]c5cc(OC)ccc45)[C@H]3C[C@H]21 (stereo not given in full),"inconclusive: 12.6 µM [inhibitor, partial curve]",–
COc1cccc(Cn2c(=O)c(-c3cc(F)cc(F)c3)nc3cnc(OC)nc32)c1,"inconclusive: 31.6 µM [inhibitor, single point]",–
Cn1cc(-c2nc3cnc(N4CCOCC4)nc3n(CCC#N)c2=O)c2ccccc21,"inconclusive: 6.31 µM [inhibitor, partial curve]",–
Nc1ccc2c(c1)CCC2=O,"inconclusive: 31.6 µM [inhibitor, partial curve]",–
CC1/C=C/C=C/C=C/C=C/C=C/C=C/C=C/C(OC2OC(C)C(O)C(N)C2O)CC2O[C@@](O)(CC(O)CC(O)C(O)CCC(O)CC(O)CC(=O)OC(C)[C@H](C)C1O)CC(O)C2C(=O)O (stereo not given in full),"inconclusive: 20 µM [inhibitor, partial curve]",–
CC(C)(c1cc(Br)c(O)c(Br)c1)c1cc(Br)c(O)c(Br)c1,"inactive and inconclusive: 39.8 µM [inhibitor, partial curve]",–
CCCOc1ccccc1NC(=O)CC1Nc2ccccc2NC1=O (stereo not given),inactive,–
O=C1C=C(NCCO)C(=O)c2cnccc21,"inconclusive: 3.16 µM [inhibitor, full curve]",–
c1ccc(-c2ccc(-c3ccc(C4=NCCN4)cc3)o2)cc1,inconclusive: 3.98 µM [fluorescent],–
CO[C@H]1[C@@H](OC(N)=O)[C@H](O)[C@@H](Oc2ccc3c(O)c(NC(=O)c4ccc(O)c(CC=C(C)C)c4)c(=O)oc3c2C)OC1(C)C,–,inconclusive: -17.6% [inhibitor] [at 25.7 µM]
CCC(c1nnnn1C(C)(C)CC)N(CCCO)Cc1cc2cccc(C)c2[nH]c1=O (stereo not given),–,inconclusive: -15.9% [inhibitor]
COc1cc(C(c2sc3nc(C)nn3c2O)N2CCN(c3ccccc3)CC2)cc(OC)c1OC (stereo not given),"inconclusive: 39.8 µM [inhibitor, single point]",–
CC(=O)N1[C@H](C)C=C[C@]1(Cc1ccccc1)C(=O)NCCc1c[nH]c2ccccc12,inactive,–
COCCn1c(=O)c(-c2ccccc2)nc2cnc(Oc3ccc(OC)cc3)nc21,"inconclusive: 39.8 µM [inhibitor, single point]",–
C/C(CCN1CCc2nc(-c3ccccc3)c(-c3ccccc3)cc2C1)=N\OC[C@@H](C)[C@H](OCc1ccccc1)C(C)C,–,inactive: 0.18% [at 11.5 µM]
Nc1c(N2CCCC2)cc(Cl)c2nonc12,"inconclusive: 25.1 µM [inhibitor, partial curve]",–
CCCC(=O)Nc1cccc(NC(=O)c2ccc3c(c2)OCCO3)c1,inactive,–
COc1ccc(NC(=O)CN2CCCCC2)cc1,inactive,–
CC(C)C1=C2CCCCC2NC(=O)N1 (stereo not given),"inconclusive: 39.8 µM [inhibitor, single point]",–
O=C1OC2(c3ccc(O)cc3Oc3cc(O)ccc32)c2c1c(-c1ccccc1)c(-c1ccccc1)c(-c1ccccc1)c2-c1ccccc1,–,inactive: 3.05% [at 11.5 µM]
COc1ccc(C2C(C#N)=C(N)Oc3cc4c(cc32)OCO4)cc1 (stereo not given),"inconclusive: 31.6 µM [inhibitor, partial curve]",–
COc1cccc(NC(=O)N(CCCN2CCOCC2)C(C)c2cc3cccc(OC)c3o2)c1 (stereo not given),inactive,–
O=C(Nc1nc(-c2ccco2)c(-c2ccco2)s1)C1CC(=O)N(c2ccc3c(c2)OCCO3)C1 (stereo not given),"inconclusive: 31.6 µM [inhibitor, single point]",–
Cc1cc(=O)oc2cc(Oc3ncccn3)ccc12,–,inconclusive: -16.3% [inhibitor]

SMILES,Potency,"activity change, negative = inhibition"
CCc1ccc2nc(NC3=NCN(CCCN4CCOCC4)CN3)nc(C)c2c1,inactive,–
COc1ccc2nc(CC(C)(C)CC(=O)O)c[n+]([O-])c2c1,"inconclusive: 20 µM [inhibitor, partial curve]",–
COc1ccc(Oc2ncc3nc(-c4ccc(F)cc4)c(=O)n(CCC#N)c3n2)cc1,"inconclusive: 31.6 µM [inhibitor, single point]",–
O=c1c2ccccc2c2ccccc2c(=O)n1Cc1ccco1,inactive,–
CCN(Cc1ccccc1)C(c1ccncc1)c1nnnn1C(C)(C)C (stereo not given),inactive,–
COc1ccc(CCn2nnnc2C(c2ccc(C)cc2)N2CCN(C)CC2)cc1OC (stereo not given),–,inconclusive: -16.5% [inhibitor]
CCOC(=O)C(C(C)=O)c1c(Br)c(O)c(O)c2c(C(=O)c3ccc(C)cc3)coc12 (stereo not given),inactive,–
CCN(CC)c1ccc(/C=N/n2c(C)cc(C)cc2=O)cc1,"inconclusive: 25.1 µM [inhibitor, partial curve]",–
CCCOC(=O)C1=C(C)NC2=C(C(=O)C(C(=O)OC)C(C)C2)C1c1ccc(N(C)C)cc1 (stereo not given),"inconclusive: 25.1 µM [inhibitor, partial curve]",–
O=C1C(=O)c2ccccc2C(O)=C1C(C1=C(O)c2ccccc2C(=O)C1=O)c1ccc(Cl)cc1,"inconclusive: 3.98 µM [inhibitor, partial curve]",–
O=C(OC1CCCCC1)c1ccc2c(c1)C1C=CCC1C(C(=O)O)N2 (stereo not given),inactive,–
CCCCOc1ccccc1NC(=O)CC1Nc2ccccc2NC1=O (stereo not given),–,inconclusive: -15.9% [inhibitor]
c1coc(CNc2nc3nonc3nc2NCc2ccco2)c1,–,inconclusive: -17.1% [inhibitor]
CC(=O)N1CCC2(CC1)CCN(c1ccc(-c3ccccc3)cc1)CC2,–,inconclusive: -19.3% [inhibitor]
CCc1ccc(C2C(C#N)=C(N)SC(N)=C2C#N)s1,"inconclusive: 25.1 µM [inhibitor, partial curve]",–
CC1CCN(c2nc3ccccc3nc2C(C#N)C(=O)NC2CCCCC2)CC1 (stereo not given),"inconclusive: 10 µM [inhibitor, partial curve]",–
CO/N=C(\C)CCN1CCCCc2nc(C)c(C)cc21,–,inactive: -3.4% [at 11.5 µM]
COc1ccc2nccc(SCC(=O)O)c2c1,–,inactive: -0.784% [at 11.5 µM]
CN[C@]1(C)[C@H]2CC[C@@H](C2)C1(C)C,–,inconclusive: -16.6% [inhibitor] [at 25.7 µM]
Cn1c(SCc2cccnc2)nc2cccnc21,inactive,–
COCCn1c(=O)c(-c2cccc(Cl)c2)nc2cncnc21,"inconclusive: 20 µM [inhibitor, partial curve]",–
Cc1cc(C)c2nc(N3CCCC(C(=O)N4CCC(C(N)=O)CC4)C3)sc2c1 (stereo not given),inactive,–
COc1ncc2nc(-c3ccc(Cl)cc3)c(=O)n(Cc3cccs3)c2n1,"inconclusive: 15.8 µM [inhibitor, partial curve]",–
CN1/C(=C\C(=O)COc2ccc3c(c2)OCO3)C(C)(C)c2ccccc21,–,inconclusive: -17.2% [inhibitor]

SMILES,Potency,"activity change, negative = inhibition"
COC(=O)C(C(=O)OC)C1O[C@@]23COCCC2(C)C3c2ccccc21 (stereo not given in full),–,inactive: -1.22% [at 11.5 µM]
CCn1cc(-c2cc(C(F)(F)F)n3nc(C(=O)O)cc3n2)c(C)n1,"inconclusive: 31.6 µM [inhibitor, partial curve]",–
Cc1noc(C)c1COC(=O)c1cc(=O)[nH]c2ccccc12,inactive,–
Cc1oc(C)c2c(=O)ccc3c(c12)OC(N)=C(C#N)C3c1ccc(F)cc1 (stereo not given),"inconclusive: 20 µM [inhibitor, partial curve]",–
Clc1ccccc1-c1nc(NCc2cccs2)c2ccccc2n1,–,inconclusive: -16.1% [inhibitor]
N#CCCn1c(=O)c(-c2cc(F)cc(F)c2)nc2cnc(Oc3ccccc3)nc21,–,inconclusive: -15.5% [inhibitor]
O=c1c(CCc2ccccc2)nc2cnc(N3CCOCC3)nc2n1C[C@H]1CCCO1,inactive,–
Nc1ncnc2c1ncn2[C@@H]1CCCO1,inactive,–
O=C(Nc1ccc(-c2nc3cccnc3s2)cc1)c1ccc(Br)o1,–,inconclusive: -15.4% [inhibitor]
CN1CCN(c2ncc3ncc(=O)n(C4CC4)c3n2)CC1,"inconclusive: 25.1 µM [inhibitor, partial curve]",–
CC(=O)c1ccc(NC(=O)c2ccn[nH]2)cc1,inactive,–
O=C(Cc1cccs1)N1CCN(c2ccccn2)CC1,"inconclusive: 39.8 µM [inhibitor, single point]",–
COc1cc(C2=NOC(C(=O)N3CCN(c4ccc(F)cc4)CC3)C2)cc(OC)c1OC (stereo not given),inactive,–
Cc1ccc(S(=O)(=O)OCC2CN3C(CCC(C)C3c3ccc(Br)cc3)C(=O)O2)cc1 (stereo not given),–,inactive: -1.74% [at 11.5 µM] and inactive: -5.58% [at 11.5 µM] and inactive: -3.22% [at 11.5 µM]
CC(=O)NCCn1c(C)cc2ccccc21,–,inconclusive: -15.3% [inhibitor]
O=C(Nc1cnccn1)c1cccc(C(F)(F)F)c1,"inconclusive: 15.8 µM [inhibitor, partial curve]",–
O=[N+]([O-])c1ccc([C@@H](Nc2ccccc2)c2ccc3cccnc3c2O)cc1,–,inactive: 2.94% [at 11.5 µM]
CCN(CC)c1ccc(C(=O)Nc2cccc(F)c2)cc1,inactive,–
CCCN(C#N)c1nc(NCC)nc(NC(C)C)n1,inactive,–
N#Cc1ccc(OC(=O)c2ccc(N=C(N)N)cc2)cc1,–,inactive: 1.34% [at 11.5 µM]
Cc1cccc2cc(C#N)c(SCC(=O)N3CCC(C)CC3)nc12,inactive,–
COCCn1c(=O)c(-c2ccc(F)cc2)nc2cnc(Oc3ccc(OC)cc3)nc21,"inconclusive: 25.1 µM [inhibitor, partial curve]",–
